Test results from PMC11828465.
These are yes or no findings as the source states them, for the method shown. In cells and extracts the contact can be indirect. Some results given as binding are weak or reduced against the parent protein; the word gives no strength. For some of these results: Where a sequence is shown, tags or fusion partners need not be part of it. Each block holds one substance with its values, some of them ahead of it.

Protein sequences, listed by entry. Tags and fused reporters are not part of them.
UniProt Q8TDX7: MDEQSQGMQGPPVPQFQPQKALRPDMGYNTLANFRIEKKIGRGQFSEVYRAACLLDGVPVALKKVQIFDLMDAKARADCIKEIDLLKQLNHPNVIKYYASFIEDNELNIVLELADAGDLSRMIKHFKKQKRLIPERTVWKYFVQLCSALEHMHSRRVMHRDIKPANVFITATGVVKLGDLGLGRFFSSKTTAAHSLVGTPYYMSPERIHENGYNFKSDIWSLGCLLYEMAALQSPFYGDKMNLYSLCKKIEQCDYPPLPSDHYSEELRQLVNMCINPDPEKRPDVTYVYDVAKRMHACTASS
UniProt Q9Y4G2: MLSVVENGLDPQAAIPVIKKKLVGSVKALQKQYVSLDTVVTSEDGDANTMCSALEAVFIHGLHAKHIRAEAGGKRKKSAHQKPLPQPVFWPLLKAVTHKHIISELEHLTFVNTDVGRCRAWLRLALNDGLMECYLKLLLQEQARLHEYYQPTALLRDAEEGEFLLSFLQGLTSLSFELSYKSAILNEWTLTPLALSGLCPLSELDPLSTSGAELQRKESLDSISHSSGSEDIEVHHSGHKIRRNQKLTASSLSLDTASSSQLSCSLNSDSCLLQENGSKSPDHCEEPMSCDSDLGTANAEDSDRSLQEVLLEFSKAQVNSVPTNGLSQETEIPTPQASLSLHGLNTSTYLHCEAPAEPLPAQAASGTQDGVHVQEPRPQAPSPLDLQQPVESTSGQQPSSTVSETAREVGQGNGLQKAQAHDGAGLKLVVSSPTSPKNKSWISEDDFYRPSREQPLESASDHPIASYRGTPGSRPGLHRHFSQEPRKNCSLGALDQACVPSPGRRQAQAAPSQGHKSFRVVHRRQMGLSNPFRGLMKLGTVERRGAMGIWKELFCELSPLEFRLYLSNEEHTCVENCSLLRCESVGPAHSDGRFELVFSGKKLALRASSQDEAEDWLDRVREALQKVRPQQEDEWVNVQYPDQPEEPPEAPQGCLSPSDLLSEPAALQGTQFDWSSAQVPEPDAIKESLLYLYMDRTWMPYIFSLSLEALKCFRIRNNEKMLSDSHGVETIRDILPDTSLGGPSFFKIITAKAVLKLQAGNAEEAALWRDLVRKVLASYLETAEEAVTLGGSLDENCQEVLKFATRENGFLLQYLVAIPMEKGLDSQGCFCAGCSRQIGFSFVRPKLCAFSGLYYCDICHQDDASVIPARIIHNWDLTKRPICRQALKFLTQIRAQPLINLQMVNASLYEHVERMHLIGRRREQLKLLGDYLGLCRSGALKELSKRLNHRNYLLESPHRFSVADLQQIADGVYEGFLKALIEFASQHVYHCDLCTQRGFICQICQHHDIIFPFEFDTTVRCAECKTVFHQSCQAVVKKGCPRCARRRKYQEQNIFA
UniProt Q96NA2: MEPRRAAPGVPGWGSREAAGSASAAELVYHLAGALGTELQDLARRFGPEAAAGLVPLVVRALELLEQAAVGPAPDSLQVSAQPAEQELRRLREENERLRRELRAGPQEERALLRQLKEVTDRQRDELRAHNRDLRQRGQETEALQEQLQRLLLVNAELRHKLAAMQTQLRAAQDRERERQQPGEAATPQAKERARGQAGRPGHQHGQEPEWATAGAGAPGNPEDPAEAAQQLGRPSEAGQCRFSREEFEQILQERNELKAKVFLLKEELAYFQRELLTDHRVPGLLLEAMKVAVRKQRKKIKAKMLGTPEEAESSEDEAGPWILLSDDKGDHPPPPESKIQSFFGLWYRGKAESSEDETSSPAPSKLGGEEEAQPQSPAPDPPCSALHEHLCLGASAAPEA
UniProt Q9ES74: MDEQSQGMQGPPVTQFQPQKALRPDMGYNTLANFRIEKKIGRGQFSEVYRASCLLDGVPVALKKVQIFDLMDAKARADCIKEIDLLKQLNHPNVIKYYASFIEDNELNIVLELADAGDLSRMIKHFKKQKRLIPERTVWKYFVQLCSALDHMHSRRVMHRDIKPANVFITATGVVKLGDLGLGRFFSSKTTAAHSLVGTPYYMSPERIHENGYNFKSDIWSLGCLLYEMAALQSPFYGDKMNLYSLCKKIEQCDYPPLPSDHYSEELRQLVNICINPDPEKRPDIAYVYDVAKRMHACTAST

Tests used:
[1] = biological target: RlucII–Rab7A^S72A (UniProt P51149); assay: FRET or BRET; BRET titration curves in live wild-type HEK293 cells: constant amount of the RlucII fusion, increasing amounts of the GFP10 fusion; 48 h post transfection; cells in PBS, coelenterazine 400a 5 µM, read after 2 min at RT; BRET50 from BRETnet against GFP10 fluorescence/RlucII …
[2] = biological target: RlucII–Rab7A wild-type (UniProt P51149); assay: as above
[3] = biological target: RlucII–Rab1a (UniProt P62820); assay: as above
[4] = biological target: RlucII–Rab7A wild-type (UniProt P51149); assay: FRET or BRET; BRET titration curves in live HEK293 cells, wild-type and TAK1^KO: constant RlucII–Rab7A, increasing Vps26A–GFP10; 48 h post transfection
[5] = biological target: RlucII–Rab7A wild-type (UniProt P51149); assay: FRET or BRET; BRET titration curves in live HeLa cells, wild-type and TBK1^KO: constant RlucII–Rab7A, increasing Vps26A–GFP10; 48 h post transfection
[6] = biological target: RlucII–Rab7A^Y183F (UniProt P51149); assay: FRET or BRET; BRET titration curves in live wild-type HEK293 cells: constant amount of the RlucII fusion, increasing amounts of the GFP10 fusion; 48 h post transfection; cells in PBS, coelenterazine 400a 5 µM, read after 2 min at RT; BRET50 from BRETnet against GFP10 fluorescence/RlucII …
[7] = biological target: RlucII–Rab7A^Y183E (UniProt P51149); assay: as above
[8] = biological target: endogenous NEK7 (human (endogenous; cell line not named, all cell lines of the paper are human)) (UniProt Q8TDX7); assay: co-IP; co-immunoprecipitation with antibodies to endogenous NEK7 and Rab7A, each in turn
[9] = biological target: endogenous Rab7A (human (endogenous; cell line not named, all cell lines of the paper are human)) (UniProt P51149); assay: as above
[10] = biological target: T1, CLN6–RlucII (UniProt Q3U466); assay: FRET or BRET; BRET titration curves in live wild-type HEK293 cells: constant amount of the RlucII fusion, increasing amounts of the GFP10 fusion; 48 h post transfection; cells in PBS, coelenterazine 400a 5 µM, read after 2 min at RT; BRET50 from BRETnet against GFP10 fluorescence/RlucII …
T1 sequence: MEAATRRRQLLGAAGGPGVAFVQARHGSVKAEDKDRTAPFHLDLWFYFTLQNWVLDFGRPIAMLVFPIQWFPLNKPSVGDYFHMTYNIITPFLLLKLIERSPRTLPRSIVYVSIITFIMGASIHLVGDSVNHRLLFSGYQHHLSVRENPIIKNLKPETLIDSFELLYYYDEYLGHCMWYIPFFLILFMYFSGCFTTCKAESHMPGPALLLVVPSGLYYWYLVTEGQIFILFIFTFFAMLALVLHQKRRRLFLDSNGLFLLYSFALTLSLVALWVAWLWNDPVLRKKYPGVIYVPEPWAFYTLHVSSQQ

[11] = biological target: RlucII–Rab7A^C205,207S (UniProt P51149); assay: as above

Substance: PLEKHM1–GFP10 (from UniProt Q9Y4G2 1-1056)
binding [1]: binds
binding [2]: binds
binding [3]: no binding

Substance: endogenous Rab7A (from UniProt P51149 1-207)
binding [8]: no binding

Substance: RILP–GFP10 (from UniProt Q96NA2 1-401)
binding [3]: no binding

Next, values leading:

binding [4]: binds
binding [5]: binds
binding [6]: binds
binding [7]: binds
binding [3]: no binding
Substance: Vps26A–GFP10 (from UniProt O75436 1-327)

binding [9]: no binding
Substance: endogenous NEK7 (from UniProt Q8TDX7 1-302) (enzyme)

binding [10]: no binding
binding [11]: no binding
Substance: GFP10–NEK7 (from UniProt Q9ES74 1-302) (enzyme)
